In ChEMBL document CHEMBL1157539, “Thousands of chemical starting points for antimalarial lead identification” (Nature, 2010):
“And” between values parts separate entries of the source, which are not always exact repeats. Identical values can stand only once. In all, about 13,000 compounds were measured (“IFI”: median about 4, highest 2% from about 17 on). This is one part of the list.

Experiment: GSK_TCMDC: Inhibition Frequency Index (IFI). The number of non-kinase HTS assays where a compound showed > 50 % inhibition, expressed as a percentage of the number of such assays in which the compound was tested (-0 is zero)
Assay type: functional
With `Cc1cccc(C(=O)Nc2ccnc(N3CCC(N(C)Cc4cccc(O)c4)CC3)c2)c1` the IFI was 0%. Work on `CO/C(=C\C=C\c1cc2cc(Cl)c(Cl)cc2[nH]1)C(=O)NC1CC2CCC(C1)N2C` (configuration not stated) yielded an IFI of 16.4%. Compound `CC(C)N(Cc1ccc(-c2ccc(C(F)(F)F)cc2)cc1)C(=O)Cn1c(SCc2cccc(F)c2F)cc(=O)c2cc(CN3CCCCC3)ccc21` has an IFI of 11.8%. Compound `CN(/N=C/C=C/c1ccc(Cl)cc1)c1nc(NCCc2ccc(O)cc2)nc(N2CCNCC2)n1` has an IFI of 5.11%. With `O=C(Nc1ccc(Cl)cc1)Nc1cccc(-c2cc(CNCCc3ccccc3)oc2-c2ccncc2)c1` the IFI was 14.2%. Work on `Cc1cc(N[C@@H](Cc2ccccc2)C(=O)NCc2cccs2)nc(NCCc2ccccc2)n1` yielded an IFI of 11.4%. Work on `O=C(Cc1c[nH]cn1)Nc1ccc(-c2ccc(-c3nc4cc(C(F)(F)F)ccc4[nH]3)s2)cc1` yielded an IFI of 5.56%. In the case of `CCC1(c2ccccc2)N=C(N)N(CCCc2ccccc2)C1=O` (configuration not stated), the IFI is reported as 7.14%. In the case of `CCCC(C)Nc1nc(C)cc(N[C@@H](CC(C)C)C(=O)Nc2ccc(OC)cc2)n1` (some centres not stated), the IFI is reported as 7.69%. `COc1cc(Cc2cnc(N)nc2N)cc(OCCCCC2SC(=O)NC2=O)c1Br` (configuration not stated) showed an IFI of 0.73%. In the case of `CN(C)CCCN1CCN(C(=O)c2cc3cc(-c4ccccc4)ccc3n2S(=O)(=O)c2ccccc2)CC1`, the IFI is reported as 5.41%. For `CN(C)CCNC(=O)c1cc2c(-c3ccc(Cl)cc3)nn(C)c2s1`, the IFI was 3.64%. Compound `COc1ccc(C2CCC(NCCCCNC(=O)c3ccc(NC(=O)c4ccc(Cl)cc4)cc3)CC2)cc1` (configuration not stated) has an IFI of 3.57%. For `N#Cc1ccc(-c2nc3c(N4CCCC4)cccc3n2CCNCc2ccccc2)cc1`, the IFI was 6.9%. Compound `CC1CCN(c2nc(C(=O)Nc3cccc4c3CCCC4)c(C(C)C)s2)CC1` has an IFI of 8.82%. With `CCOc1ccc(C2CCN(CCCCNC(=O)c3ccc(NC(=O)c4ccc(Cl)cc4)cc3)CC2)c(CC)c1` the IFI was 0.76%. `CCNC1=NC2=C(CC(C(C)(C)C)CC2)C2(CCC(C(C)(C)C)CC2)S1` (configuration not stated) showed an IFI of 6.52%. Compound `CN(C)c1ccc(C=C2SC(=O)N=C2Nc2ccccc2)cc1` has an IFI of 2.76%. Work on `Clc1cccc(C=NN=c2cc[nH]c3ccccc23)c1` yielded an IFI of -0%. Work on `Cc1c(OC(C)C)nc2ccccc2c1C(=O)N[C@H](c1cccc(F)c1)C1CC1` yielded an IFI of 1.54%. Compound `COc1ccc(-c2ccc(S(=O)(=O)Nc3cc4c(cc3OC(C)C)CCNCC4)cc2)cc1` has an IFI of 9.29%. For `O=C(N[C@@H](Cc1ccccc1)CN1CCC(Oc2ccc(F)cc2)CC1)c1ccc(OCCCN2CCCCC2)cc1`, the IFI was 9.03%. With `COc1c(C2CCN(CCCCNC(=O)c3ccc(-c4ccc(C#N)cc4)c(O)c3)CC2)ccc2c1CCCC2` the IFI was 7.34%. In the case of `COc1cc(F)c2ncc(C#N)c(CCN3CCC(NCc4ccc5c(c4)OCCO5)CC3)c2c1`, the IFI is reported as 3.13%. `COc1cc(CNC[C@@H](O)[C@H](Cc2ccccc2)NC(=O)c2cc(C3CCCC3)cc(N3CCCS3(=O)=O)c2)cc(OC)c1` gave an IFI of 8.51%. For `OCCNc1nc(Nc2ccccc2)nc2ccccc12`, the IFI was 1.38%. Work on `COc1cc(Cc2cnc(N)nc2N)cc(CC(C)O)c1O` (configuration not stated) yielded an IFI of 0%. Work on `COc1ccc(NC(=O)[C@H](Cc2ccccc2)Nc2nc(NCCN3CCCC3)ncc2C)cc1` yielded an IFI of 4.76%. For `O=C(NCc1cccc(F)c1)Nc1cccc(-c2cccc(-c3nc4cc(C(F)(F)F)ccc4[nH]3)c2)c1`, the IFI was 6.93%. Work on `COC(=O)c1cccc(CNCc2ccc(-c3ccc(-c4nc5cccc(C)c5[nH]4)s3)cc2)c1` yielded an IFI of 7.55%. `CCCc1cc(NC2CCN(C)CC2)nc(Nc2ccc(C)cc2)n1` gave an IFI of 2.94%. For `Cc1cc2cc(/C=C/C(=O)NC3CCC(CCN4CCc5ccc(C#N)cc5CC4)CC3)ccc2[nH]1` (configuration not stated), the IFI was 2.27%. `O=C(NCc1cccc2ccccc12)[C@@H]1CCCN1C(=O)c1ccc(O)c(-c2ccc(Cl)c(Cl)c2)c1` gave an IFI of 0.74%. With `CN1CCN(c2ccnc3ccc(NC(=O)Nc4cccc5c(-c6ccncc6)cccc45)cc23)CC1` the IFI was 0%. In the case of `Cc1ccc(NC(=O)c2ccc(CN3CCCN(Cc4cccc(O)c4)CC3)cc2)cc1F`, the IFI is reported as 9.45%. In the case of `O=C(Nc1ccc(-c2ccccc2)cc1)Nc1cccc(Cn2nc(Cl)c(N3CCNCC3)cc2=O)c1`, the IFI is reported as 7.69%. Compound `CCOc1ccc(C2CCN(CCCCNC(=O)c3ccc(NC(=O)c4ccc(Cl)cc4)cc3)CC2)c(OCC)c1` has an IFI of 0.74%. `Clc1ccc(CNc2ccnc(NCc3ccc4c(c3)OCCCO4)n2)c(Cl)c1` showed an IFI of 7.69%. For `c1cncc(NCc2ccc(-c3cc4ccncc4cc3OC3CCNCC3)s2)c1`, the IFI was 3.33%. With `CCCCCCNC(=O)C(N)CCCC(N)C(=O)NCCCCCC` (configuration not stated) the IFI was 1.42%. With `O=C(Nc1cccc(CN2CCN(Cc3cccc(O)c3)CC2)c1)c1ccc(Cl)c(Cl)c1` the IFI was 3.97%. `Cc1cccc(C)c1C1CCN(CCCCNC(=O)c2cc3ccccc3[nH]2)CC1` gave an IFI of 9.23%. `O=C1NC(c2ccccc2)C2(CCN(CC(O)COc3cccc4ncccc34)CC2)O1` (configuration not stated) showed an IFI of -0%. Compound `O=C(NCCN1CCC(NC(=O)c2ccc(-c3ccccn3)s2)CC1)c1cccc(C(F)(F)F)c1` has an IFI of 0.69%. Compound `COc1ccccc1NC(=O)Nc1cccc(-c2cccc(-c3nc4cccc(C)c4[nH]3)c2)c1` has an IFI of 3.03%. With `COc1cc2c(cc1CCNCCCCNCCc1cc3c(cc1OC)CCCC3)CCCC2` the IFI was 15.8%. `NC1CCN(Cc2ccc(-c3ccc(-c4nc5cc(F)ccc5[nH]4)s3)cc2)C1` (configuration not stated) showed an IFI of 4.35%. In the case of `COc1cc(NC(=O)/C=C/c2cccc3cc[nH]c23)ccc1OCCN(C(C)C)C(C)C`, the IFI is reported as 2.84%. In the case of `Cc1ccc(C)c(NC(=O)NC2CCN(c3ccnc(Nc4ccc(F)cc4)n3)C2)c1` (configuration not stated), the IFI is reported as 1.54%. Work on `Fc1ccc2[nH]c(-c3cccc(-c4ccc(CNCCN5CCNCC5)cc4)c3)nc2c1` yielded an IFI of 5.88%. Work on `Cc1noc(C)c1-c1ccc2c(Nc3ccc(C(F)(F)F)cc3)c(C(N)=O)cnc2c1` yielded an IFI of 2.44%. Work on `CC(C)Oc1cc2c(cc1NS(=O)(=O)c1ccc(-c3ccc(Cl)cc3)cc1)CCN(C)CC2` yielded an IFI of 12.4%. With `COC(=O)c1cccc(CNCc2cccc(-c3cccc(-c4nc5cc(F)ccc5[nH]4)c3)c2)c1` the IFI was 5.83%. In the case of `CCc1nonc1NC(=O)c1oc2c(C)c(C)ccc2c1C`, the IFI is reported as 0.98%. Work on `CCCC(C)Nc1nc(C)cc(N[C@@H](Cc2ccccc2)C(=O)Nc2ccccc2)n1` (some centres not stated) yielded an IFI of 9.09%. `CCCC(C)Nc1nc(C)cc(NCCC(=O)Nc2ccccc2)n1` (configuration not stated) showed an IFI of 4.55%. Compound `COc1ccc(O)cc1Cc1cnc2nc(N)nc(N)c2c1C` has an IFI of 2.24%. In the case of `Cc1cccc(CCCNC(=O)CN(c2cccc(C(F)(F)F)c2)S(=O)(=O)c2ccc(C(F)(F)F)cc2)c1`, the IFI is reported as 4.81%. `COc1ccc(NC(=O)Nc2ccc(-c3cccc(-c4nc5cccc(C)c5[nH]4)c3)cc2)cc1` showed an IFI of 4%. `N[C@@H](CCNC1CCN(c2cccc(C(F)(F)F)c2)CC1)Cc1ccc(F)c(F)c1` gave an IFI of 6.25%. Work on `COc1ccc(-c2cccc(NC(=O)c3cccc(C#N)c3)c2)cc1CN(C)CCN(C)C` yielded an IFI of 0%. Compound `Cn1nc(-c2cccc(CNC3CCc4ccccc43)c2)c2cnc(NCCCN3CCCC3)nc21` (configuration not stated) has an IFI of 7.69%. With `CN(CCO)Cc1cccc(-c2ccc(NC(=O)c3cccc(C#N)c3)cc2)c1` the IFI was 1.98%. In the case of `CS(=O)(=O)Nc1ccc(-c2cnc3[nH]cc(-c4ccc(C(=O)O)cc4)c3c2)cc1`, the IFI is reported as 4.95%. In the case of `Cc1cc(N[C@@H](CC(C)C)C(=O)NC2CCCC2)nc(NCc2ccccc2C)n1`, the IFI is reported as 5.13%. Compound `O=C(N[C@H]1CCN(Cc2ccc(OCCN3CCCC3)c3ccccc23)C1)c1ccc(Cl)c(Cl)c1` has an IFI of 8%. In the case of `COc1cc(CN2CCC(N3CCc4cc(NC(=O)c5cc(C)on5)ccc43)C2)ccc1F` (configuration not stated), the IFI is reported as 0%. `OCCNc1nc(Nc2cccc(O)c2)nc2ccccc12` gave an IFI of 1.35%. For `Cc1cc(N(C)C2CCN(C)C2)nc(Nc2ccccc2Cl)n1` (configuration not stated), the IFI was 1.19%. For `CN(C)CCCNc1ccnc2cc(Cl)ccc12`, the IFI was 0%. Work on `CC(C)(C)c1nn(-c2ccc(Cl)cc2)c2[nH]c(=O)c(CNC3CCCC3)cc12` yielded an IFI of 2.33%. With `CN1CCN(Cc2ccc(-c3ccc4c(Nc5ccc(Oc6ccccn6)cc5)ccnc4c3)o2)CC1` the IFI was 6.57%. Compound `O=C(CCCCCNC(=O)c1ccc(O)c(-c2ccc(Cl)c(Cl)c2)c1)NC1CCCCCC1` has an IFI of 0.74%. `CC(=O)c1cc(N2CCCC2)ccc1N` showed an IFI of 3.64%. In the case of `Cc1cc(=O)c(-c2ccc(Oc3cccc(C(F)(F)F)c3)cc2)c(C)[nH]1`, the IFI is reported as 2.56% and 2.24%. Work on `CCCCCCc1cc(Oc2c(I)cc(C[C@H](N)C(=O)O)cc2I)ccc1O` yielded an IFI of 8.51%. Work on `O=C(Nc1cccc(-c2cc3ccccc3[nH]2)c1)C1CCN(Cc2ccccc2O)CC1` yielded an IFI of 11.9%. Compound `Cc1cc2c(NC(=O)NC3CCN(CCc4ccccc4Cl)CC3)cccc2cn1` has an IFI of 0.72%. With `O=S(=O)(c1ccc(Oc2ccccc2)cc1)N(CCC(O)(C(F)(F)F)C(F)(F)F)Cc1cccc(O)c1` the IFI was 4.35%. `O=c1cc(NCCCNCc2cc3ccc(Br)cc3s2)[nH]c2ccccc12` showed an IFI of 4.51%. `COc1ccc(NC(=O)[C@H](Cc2ccccc2)Nc2cc(C)nc(NCCc3ccc(F)cc3)n2)cc1` gave an IFI of 13.6%. `O=C1c2ccccc2C(=O)N1CCOc1c(Br)cc(Br)cc1CNCCCNc1cc(=O)c2ccccc2[nH]1` gave an IFI of 3.52%. With `CN1CCN(CC(O)CNC(=O)Nc2ccc(Br)cc2)CC1` (configuration not stated) the IFI was -0%. `O=C(Nc1ccccc1Cc1ccccc1)c1ccccc1[N+](=O)[O-]` showed an IFI of -0%. In the case of `CC(C)(C)C(C)(C)Cc1ccc(O)c(CN2CCN(c3ccccc3)CC2)c1`, the IFI is reported as 1.67%. Compound `COc1ccc2nc3cc(Cl)ccc3c(N)c2c1` has an IFI of 14.1%. Compound `O=C(c1cc(-c2ccccc2O)on1)N1CCN(C(c2ccccc2)c2ccccc2)CC1` has an IFI of 1.06%. `CN1CCC(C(=O)N(Cc2ccc(-c3ccc(CNCCc4ccccc4)cn3)cc2)C2Cc3ccccc3C2)CC1` gave an IFI of 8%. In the case of `CCCCCc1ccc(N2C(N)=NC(N)=NC2(C)C)cc1`, the IFI is reported as 4.44%. `COc1cccc2c(NN=Cc3cccc(Cl)c3)ccnc12` showed an IFI of 3.62%. `COc1cccc(Nc2c(C(N)=O)cnc3ccc(-c4ccc([S+](C)[O-])cc4)cc23)c1` (configuration not stated) showed an IFI of 4.41%. Work on `CC(C)N1CCC(N(Cc2ccc(-c3ccc(C(F)(F)F)cc3)cc2)C(=O)Cn2c(CCc3cccc(F)c3F)cc(=O)c3cn(C)nc32)CC1` yielded an IFI of 12.8%.
